Experimental data as given in PMC12136788.
The list shows a part of the results.

T1: UNK ZnF1-3 (human, UniProt Q9C0B0 31-174)
T1 sequence: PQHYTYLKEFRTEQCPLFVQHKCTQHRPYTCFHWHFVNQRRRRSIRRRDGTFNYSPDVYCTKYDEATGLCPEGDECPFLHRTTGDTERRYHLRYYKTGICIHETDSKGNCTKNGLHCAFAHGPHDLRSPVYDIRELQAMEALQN

B1: chr11:29606814:29606815:+_ENSMUSG00000020458_ENSMUST00000102843|mus_mus|motif|central (ssRNA)
RNA: GGGAGUUCUACAGUCCGACGAUCCACUUUAGUAAGGGUCGCAGGUGACUCUUGUGGAUUAUGAAGGGCUGCACUACAAACGGAAUCCUCUUUGUCUUUACUCCUCACAAUUACUUCUUCCUUAGUGUUUUCUACUAACAUGGCCAACAGAGGAUUGAGCAUCA
B2: chr8:11702082:11702083:-_ENSG00000164733_ENST00000533455|hu_hu|FALSE|FALSE (ssRNA)
RNA: GGGAGUUCUACAGUCCGACGAUCCGCUGUUCCACUGGCUCACCCACAUGAUUAGCAGAGUGCACGAAAAAAUAAAACUUCUAUUAAAGAAUCAUGCUGAGCACAAGAUCAGAGAGGUUGUGACAUUGCAAACUCGAUAGAUGCCAACAGAGGAUUGAGCAUCA
B3: 73659817_73744017_530_3pUTR_ENSMUSG00000049122_ENSMUST00000084474|mouse|control|control (ssRNA)
RNA: GGGAGUUCUACAGUCCGACGAUCCUCAAGCCAGUGCCUUUGCUUCUCUGGGUCCACAUAGCGAAUUCCAAAGUAGUCCUUUUCCAGCAGGCUAUAGUAGUUGCAGAUGUAUUCAAUGAGAAACUGCCCUUUCGUUUCCCUCUGCAACAGAGGAUUGAGCAUCA
B4: chr3:89866305:89866306:+_ENSMUSG00000027942_ENSMUST00000161918|mus_hu|FALSE|FALSE (ssRNA)
RNA: GGGAGUUCUACAGUCCGACGAUCUUCAUACGUUUUAUUUGAUAAUAGUUCAUUUUAUUAAAUAAUUUAUAAAGUCAGACCAGUGCAUUGGGCUUGUUAGGGGAAACCAUUCCUUCCUACUGUCACAUAGCCUGGCAGAUUAUACAACAGAGGAUUGAGCAUCA
B5: chr10:60036935:60036936:+_ENSG00000122873_ENST00000333926|hu_hu|FALSE|FALSE (ssRNA)
RNA: GGGAGUUCUACAGUCCGACGAUCGUGAAGGUUUAUCAUAGCUUUAUUUCGAUGAUCUUUAACAUAAAAUCUUUUGUAAGCUAGAUAACCAAUUGCAGCUGUCCCAGCAGCAAUGGUAACUGCUGCGAUCCAUUCAACUCGUACCAACAGAGGAUUGAGCAUCA
B6: chr6:41757443:41757444:+_ENSG00000214736_ENST00000398881|hu_mus|hu_hu_hu_mus_False|18_98 (ssRNA)
RNA: GGGAGUUCUACAGUCCGACGAUCGAACCGUGCAGAGACCAGAGAAUAGCCGACACUGGGGGAUGGGGGGGCAGUGGGGGGGGGUUCAGGCAAGGAGAGGGAGUCAACUUCAGCUGCUCAAACUUCAGGAUCUUGUGGUCACAGCAACAGAGGAUUGAGCAUCA

The binders below were run against T1, UNK ZnF1-3 (assay: nsRBNS (natural sequence RNA bind-n-seq); RBNS binding buffer (assumed for nsRBNS): 25 mM Tris pH 7.5, 150 mM KCl, 3 mM MgCl2, 0.01% Triton X-100, 500 ug/ml BSA, 20 U/ml SUPERase-In, 4 C; UNK is unkempt and MSI1 is Musashi-1; names of the RNAs are library labels; protein concentration not given here; high values mean tight binding).

Row | Binder | binding signal [enrichment R]
1 | B1 | 0.776
2 | B2 | 2
3 | B3 | 0.738
4 | B4 | 1.91
5 | B5 | 0.444
6 | B6 | 1.27
